Screen size: about 45,000 compounds; about 200 (0.44%) were called active. About 7% were inconclusive and are not listed. The call rests on the fitted dose curve; in most records, active means well fitted activation curve with a large enough effect; inconclusive means small, poorly fitted or top-dose-only effect; inactive means no such curve, though single readings can be large or run the other way. The list shows a part of the results. Square brackets hold non-standard residues; d marks the D form. Peptide text beside a SMILES is read from it. * marks the point of attachment. Tic = O=C(O)[C@@H]1Cc2ccccc2CN1; Boc = CC(C)(C)OC(=O)*
Test: qHTS of TDP-43 Inhibitors: NCGC Sytravon Library Screen; further: nearly all actives have a fitted effect of over 55% in size; on growth rescue (activation): 0% is about no effect
Conditions: yeast TDP-43 toxicity rescue, BacTiter-Glo growth, 24 h; series mostly up to 46.1 µM; growth rescue (activation): at the top concentration
Procedure, shortened: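 TDP-43-expressing yeast, pregrown in raffinose, seeded at OD600 0.02 in galactose medium with compound for 24 hr at 30 deg C. Growth read by BacTiter-Glo luminescence, so rescue of toxicity appears as activation.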
Potency means the concentration at half of the fitted maximal effect.

Row | Structure (SMILES) | growth rescue (activation) | Potency
1 | CCOC(=O)C1=C(C)NC(=S)NC1c1ccc(C)s1 (stereo not drawn) | inactive: 16.4% | –
2 | COc1ccc(C(=O)NC(=S)NNC(=O)c2c(-c3ccccc3)noc2C)cc1OC | – | active: 12.6 µM
3 | COCCNC(=O)c1cccc2c(-c3cnn(C)c3)coc12 | inactive: 3.21% | –
4 | CC1(C)Cc2c(c(-c3ccccc3)[nH]c(=O)c2C#N)CO1 | inactive: 1.69% | –
5 | CCOC(=O)c1ccc(NC(=S)NCCCn2ccnc2)cc1 | inactive: 2.83% | –
6 | COc1ccc(N(CC(=O)N2CCN(c3ccc(F)cc3)CC2)S(=O)(=O)c2c(C)n[nH]c2C)cc1 | inactive: -0.768% | –
7 | OC(C#CCN1CCCC1)(c1ccccc1)c1ccccc1 | inactive: 15.6% | –
8 | O=C(O)c1ccc2c(c1)C(=O)N(c1cccc(-c3nc4ccccc4s3)c1)C2=O | inactive: 4.55% | –
9 | O=C(Nc1ccccc1C(=O)N/N=C/c1ccncc1)c1ccccc1 | inactive: -76.8% | –
10 | C=CCNc1nc2cc(-c3ccccc3OC)sc2c(=O)n1C | inactive: 28.4% | –
11 | COc1ccc(C(=O)COC(=O)CCN2C(=O)C3CC=CCC3C2=O)c(OC)c1 (stereo not drawn) | inactive: 2.34% | –
12 | O=C(N/N=C/c1cccs1)c1n[nH]c2c1CCC2 | inactive: -5.59% | –
13 | CSc1ncccc1C(=O)OCCCC(=O)c1ccc(F)cc1 | inactive: 8.96% | –
14 | OC(c1ccc(Cl)cc1)C(CN1CCOCC1)c1ccccc1 (stereo not drawn) | inactive: -3.53% | –
15 | COc1ccc(Cl)cc1NC(=S)Nc1ccc(Cl)cn1 | inactive: 3.08% | –
16 | CSc1ncc(CN2CCN(CCC(C)C)C(CCO)C2)cn1 (stereo not drawn) | inactive: -7.99% | –
17 | Cc1nonc1CN(C)C(=O)CC1C(=O)NCCN1Cc1ccc(F)c(F)c1 (stereo not drawn) | inactive: -3.01% | –
18 | Cc1nc([N+](=O)[O-])c(C(=O)O)n1C | inactive: 4.86% | –
19 | CC(Oc1ccccc1)c1ccnc2nc(N3CCOCC3)nn12 (stereo not drawn) | inactive: 6.34% | –
20 | Cc1ccc(C(=O)c2ccccc2C(=O)OCC(=O)N2CCCC2)cc1 | inactive: 1.92% | –
21 | COc1ccc(-n2nc(C(=O)NCC(=O)Nc3cc(OC)c(OC)c(OC)c3)c3ccccc3c2=O)cc1OC | inactive: 18.8% | –
22 | CCCCC(=O)Nc1ccccc1C(=O)OCC(=O)c1ccc2c(c1)OCCO2 | inactive: 10.9% | –

Row | Structure (SMILES) | growth rescue (activation) | Potency
23 | COc1ccc(OC)c(-c2cc(C(=O)N3CCOCC3)no2)c1 | inactive: 17% | –
24 | CCN(CC)c1ccc(S(=O)(=O)Nc2cc(Cl)ccc2Cl)cc1NC(=S)NC(=O)C1CCCC1 | inactive: 19.4% | –
25 | CCOc1ccc(Br)cc1C(=O)N/N=C/c1ccc([N+](=O)[O-])cc1 | inactive: -2.5% | –
26 | Cc1ccc(NC(=O)Nc2ccc(F)cc2)cc1Cl | inactive: -5.35% | –
27 | CCOC(=O)N/N=C\C=C\c1ccco1 | inactive: 2.82% | –
28 | O=C(NCC1CCCCC1)c1cccc(Br)c1 | inactive: 14.8% | –
29 | O=C(Cc1ccc([N+](=O)[O-])cc1)OCc1ccc([N+](=O)[O-])cc1 | inactive: 11.6% | –
30 | CC(=O)Nc1cccc(Oc2nc(NCC3CC3)nc3ccsc23)c1 | inactive: 9.57% | –
31 | OCc1cccc(-c2csc(C(O)c3ccco3)n2)c1 (stereo not drawn) | inactive: 11.6% | –
32 | O=C(Cc1ccc(Br)cc1)NNC(=O)c1cccs1 | inactive: 4.35% | –
33 | Cc1cccnc1C(NC(=O)C1CCN(CCOc2ccc(F)cc2)CC1)c1ccc(Cl)cc1 (stereo not drawn) | inactive: -1.15% | –
34 | CCN(c1ccccc1)S(=O)(=O)c1ccc(C(=O)N(C)CCc2ccc(OC)c(OC)c2)cc1 | inactive: 4.45% | –
35 | CCC(Sc1nc(N)cc(=O)[nH]1)C(=O)NC(C(=O)OC)c1ccccc1 (stereo not drawn) | inactive: 10.8% | –
36 | Cc1sc2c(c1C)C(=O)NC(c1ccccc1F)N2 (stereo not drawn) | inactive: -7.67% | –
37 | Cn1/c(=N/NC(=O)c2ccccc2F)sc2ccccc21 | inactive: -3.81% | –
38 | COc1ccc(N2C(=O)C(CC(=O)O)S/C2=N\N=C\c2cccs2)cc1 (stereo not drawn) | inactive: -1.79% | –
39 | Cc1ccc(N(C(=O)Cn2nnc3ccccc32)C(C(=O)NCc2ccccc2)c2ccccn2)cc1 (stereo not drawn) | inactive: 7.88% | –
40 | Cc1cccc(CSc2nc3c(c(-c4cccs4)c2C#N)CN(C)CC3)c1 | inactive: 4.14% | –
41 | COc1ccc(NC(=O)Cc2cccs2)cc1S(=O)(=O)N1CCCCC1 | inactive: 16.3% | –
42 | CN(C)c1ccc(/C=N/N=C/c2ccccc2O)cc1 | inactive: 0.0987% | –
43 | O=C(NCc1ccco1)c1c[nH]c2ccc(S(=O)(=O)N3CCOCC3)cc2c1=O | inactive: -11.2% | –
44 | COc1ccc(NC(=O)C2(C)Cc3c(-c4ccc(C(N)=O)cc4)ccnc3O2)cn1 (stereo not drawn) | inactive: -6.18% | –

Row | Structure (SMILES) | growth rescue (activation) | Potency
45 | CN(NS(=O)(=O)c1ccc(Cl)cc1)c1ncc(C(F)(F)F)cc1Cl | inactive: 20.7% | –
46 | O=C(COC(=O)COc1ccccc1)Nc1ncc(Cl)cc1Cl | inactive: -10.6% | –
47 | CN(C)[C@@H]1CCC[C@H]1OC(=O)C(c1ccccc1)c1ccccc1 | inactive: -3.03% | –
48 | CC(C)c1ccc(N=C2N=C(N)c3ccccc32)cc1 | inactive: 27.9% | –
49 | CCOC(=O)CCCN1CC(O)=C(c2nc3ccccc3s2)C1=N | inactive: 8.58% | –
50 | CCCCn1c(=O)[nH]c(=O)c2c1nc(-c1ccc3ccccc3c1)n2CC | inactive: -8.39% | –
51 | COc1ccc(Cl)cc1S(=O)(=O)N1CCCC(C(=O)N2CCOCC2)C1 (stereo not drawn) | inactive: 2.84% | –
52 | CCCCC(=O)N(C)c1c(C)nc2ccc(C(=O)N3CCCCC3)cn12 | inactive: -9.12% | –
53 | C/C(=N\Nc1nc(-c2cc(C)ccc2C)cs1)c1cc2ccccc2oc1=O | inactive: -11.3% | –
54 | CCN(CC)S(=O)(=O)c1cccc(C(=O)OCC(=O)NC(C)c2ccccc2)c1 (stereo not drawn) | inactive: 13.8% | –
55 | COc1ccccc1CC(=O)Nc1ccc(S(=O)(=O)N2CCOCC2)cc1 | inactive: -11.9% | –
56 | Cc1ccc(Cc2c(C)nc3nc(SCC(=O)NCCCN4CCOCC4)nn3c2C)cc1 | inactive: 6.9% | –
57 | O=C(N/N=C/c1cccc(OC(=O)c2cccc(Br)c2)c1)c1cccnc1 | inactive: 34.7% | –
58 | COc1ccc(Cl)cc1C(=O)NNC(=O)CNC(=O)c1ccc(C)s1 | inactive: 6.76% | –
59 | CC(=O)C1=C(O)C(=O)N(Cc2ccccc2)C1c1ccc(Cl)cc1 (stereo not drawn) | inactive: -3.65% | –
60 | COc1ccc(OC)c(S(=O)(=O)N2CCN(C)CC2c2ccccc2)c1 (stereo not drawn) | inactive: -4.19% | –
61 | COc1ccc(-n2cnc3cc(C(=O)NCCN4CCOCC4)ccc32)cc1 | inactive: 8.86% | –
62 | O=C(Cn1cc(C(F)(F)F)ccc1=O)OCC(=O)c1ccc[nH]1 | inactive: -9.62% | –
63 | O=[N+]([O-])c1ccc(-c2ccc(/C=N/Nc3nc(N4CCCC4)nc(N4CCCC4)n3)o2)cc1 | inactive: 11% | –
64 | Cc1ccc(OCC(=O)c2cc(C)n(CC(F)(F)F)c2C)c([N+](=O)[O-])n1 | inactive: 10.4% | –
65 | COc1nc(-c2cnccn2)sc1C | inactive: -3.25% | –
66 | Cc1nnc(-c2ccccc2)[nH]c1=O | inactive: -7.48% | –

Row | Structure (SMILES) | growth rescue (activation) | Potency
67 | Cc1ccc(NC(=O)c2ccc([N+](=O)[O-])o2)cc1C | inactive: -94% | –
68 | COc1ccccc1-n1c(Cc2cccs2)n[nH]c1=S | inactive: -8.02% | –
69 | CC(C)(C)OC(=O)N1Cc2ccccc2C[C@H]1C(=O)N1CCC[C@H]1C(=O)O (Boc-[Tic]-Pro-OH) | inactive: -3.75% | –
70 | O=C(NCC(c1ccc(F)cc1)N1CCOCC1)c1ccc(C(=O)c2ccccc2)cc1 (stereo not drawn) | inactive: -16.9% | –
71 | Cc1cc(C)cc(NC(=O)Nc2cccs2)c1 | inactive: -1.67% | –
72 | Cc1cc(C)n(CC(C)NC(=O)CCc2nnc(CCc3ccccc3)o2)n1 (stereo not drawn) | inactive: 1.07% | –
73 | O=C(c1nc2ccccc2[nH]1)c1ccccc1[N+](=O)[O-] | inactive: 18% | –
74 | NS(=O)(=O)c1ccc(CNC(=O)c2ccc(Cl)cc2[N+](=O)[O-])cc1 | inactive: 20.4% | –
75 | CSc1nc2c(c(=O)[nH]1)C(c1ccccc1Cl)CC(=O)N2 (stereo not drawn) | inactive: -2.58% | –
76 | Cc1ccc(NC(=O)CN2C(=O)N/C(=C/c3ccc4c(c3)OCCO4)C2=O)cc1 | inactive: 1.98% | –
77 | O=C(COC(=O)CCc1nc2ccccc2c(=O)[nH]1)Nc1ccc(N2CCOCC2)cc1 | inactive: 25.1% | –
78 | N#CCc1nn(-c2ccc(Cl)cc2)c(N)c1C#N | inactive: 18.1% | –
79 | O=C(COc1cccnc1[N+](=O)[O-])N1CCc2ccccc2C1 | inactive: -1.02% | –
80 | CCN(CC)S(=O)(=O)c1ccc(C(=O)OCC(=O)NC2CCCC2)cc1 | inactive: 0.058% | –
81 | COC(=O)c1ccc(NC(=O)C2CCCN(S(C)(=O)=O)C2)cc1 (stereo not drawn) | inactive: -10.6% | –
82 | S=C(NCCN1CCOCC1)Nc1ccc(Br)cc1 | inactive: -17.5% | –
83 | O=C(NNC(=O)c1cc(Cl)ccc1O)c1cccs1 | inactive: 14.6% | –
84 | O=C(O)CNC(=O)/C(=C\c1cccc([N+](=O)[O-])c1)NC(=O)c1ccco1 | inactive: 31.1% | –
85 | COC(=O)c1cc(NC(=O)c2ccc(C)cc2)c(=O)oc1C | inactive: 3.05% | –
86 | O=C(CC12CC3CC(CC(Br)(C3)C1)C2)NCc1ccccc1 | inactive: 5% | –
87 | CSc1ncccc1C(=O)OCC(=O)c1ccc(C)s1 | inactive: 7.54% | –
88 | C/C(=N\NC(=O)c1cccc(Cl)c1)c1cccc(NC(=O)c2ccco2)c1 | inactive: 0.739% | –

Row | Structure (SMILES) | growth rescue (activation) | Potency
89 | CC(=O)NC(Cc1ccc(F)c(F)c1)C(=O)NC1CCN(c2nnnn2-c2ccccc2)CC1 (stereo not drawn) | inactive: -0.882% | –
90 | O=C(CC1C(=O)NCCN1Cc1ccccc1C(F)(F)F)NCCn1cccn1 (stereo not drawn) | inactive: 8.95% | –
91 | CCCN(CCC)C(=O)Cn1c(=O)n(CCCC(=O)NCc2ccco2)c(=O)c2sccc21 | inactive: 0.43% | –
92 | S=C(N/N=C1\CCc2ccccc21)NC1CCCCC1 | inactive: 25.8% | –
93 | Nc1cc(N)nc(SCC(=O)Nc2ccc3c(c2)OCO3)n1 | inactive: 3.16% | –
94 | O=C1NC2=C(C(=O)CCC2)C(c2ccccc2)N1 (stereo not drawn) | inactive: 10.8% | –
95 | Cc1nnc(SCC(=O)NC23CC4CC(CC(C4)C2)C3)s1 | inactive: 12.8% | –
96 | O=C1CC(N2CCSCC2)C(=O)N1c1ccccc1 (stereo not drawn) | inactive: 7.67% | –
97 | Cc1ccc(-c2nn(-c3ccccc3)cc2/C=C(\C#N)C(=O)NCc2ccccc2)cc1 | inactive: 6.51% | –
98 | CCc1cc(C(=O)N/N=C/c2ccc(O)cc2)c2ccccc2n1 | inactive: -12.5% | –
99 | O=C(Cn1cc([N+](=O)[O-])ccc1=O)NCC(=O)Nc1ccc(F)c(F)c1F | inactive: -5.66% | –
100 | COc1ccc([N+](=O)[O-])cc1NC(=O)c1ccc(CN(c2ccccc2)S(C)(=O)=O)cc1 | inactive: 0.659% | –
101 | Cc1cccnc1NC(=O)c1ccc(S(=O)(=O)N2CC(C)OC(C)C2)cc1 (stereo not drawn) | inactive: -9.12% | –
102 | NS(=O)(=O)c1ccc(CCNC(=O)c2ccc(Cn3c(=O)[nH]c4ccccc4c3=O)cc2)cc1 | inactive: -3.82% | –
103 | Cc1ccc(OCC(=O)Nc2ccc3c(c2)OCCO3)cc1C | inactive: -1.74% | –
104 | O=C(Nc1ccccc1NS(=O)(=O)c1ccc(F)cc1)C1CCC1 | inactive: 14.3% | –
105 | Cc1cccc(Nc2nc3ccccc3n3c(N)nnc23)c1 | inactive: 23.3% | –
106 | CCn1cc(CN2CCCC(C(=O)c3ccc(-c4ccccc4)cc3)C2)cn1 (stereo not drawn) | inactive: 1.42% | –
107 | CN(Cc1ccco1)C(=O)CSc1nc(C2CC2)n(-c2ccccc2)n1 | inactive: 28.5% | –
108 | COCCN1C[C@@H](CO)O[C@@H](n2cnc3c(N(C)C(C)C)ncnc32)C1 | inactive: 10.1% | –

Reference: PubChem BioAssay AID1347073 (National Center for Advancing Translational Sciences (NCATS), 2019)
